{"source": "the supplement of paper PMC11417369", "note": "The list shows a part of the results."}
{"tested_on": "PfAP2-HC AP2 domain (GST-tagged)", "test": "gcPBM binding intensity (ln(normalized median fluorescence intensity)); higher = stronger DNA binding", "how_it_was_run": "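Each value is the highest Masliner-normalised natural-log median intensity across replicate spots of either orientation of a probe. The probes were primer-extended double-stranded 36-bp intergenic genomic sequences on an Agilent 4 × 180k array, alongside negative controls, exposed for 1 h to GST-tagged P. falciparum DNA-binding domains expressed in E. coli. Bound protein was picked up with Alexa488 anti-GST antibody and scanned at 488 nm.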"}
{"sequence": "AGGAAATGTTTATATACATGCATAATTAAATATAAT [TGCATGCA_site672]", "gcPBM binding intensity (ln)": 9.63}
{"sequence": "ATAAAATGCGCAAACACACACAAAAAAAAGATATAT [CACACA_site6875]", "gcPBM binding intensity (ln)": 10.2}
{"sequence": "TTTTTAATTAATCTTATAAATATTTATAAATATATA [CACACA_negctrl_site1485]", "gcPBM binding intensity (ln)": 9.44}
{"sequence": "CATATTGTCATTCTGGTGCACTTTTTTTTTTTTTTT", "gcPBM binding intensity (ln)": 9.84}
{"sequence": "ATATAATATAACAATACGCACACGTATACAAAAAAA [CACACA_site3151]", "gcPBM binding intensity (ln)": 9.91}
{"sequence": "TTTTCATGTTTTTTTCTTTATTTTTTTTTTTTTTTT [GTGCAC_negctrl_site511]", "gcPBM binding intensity (ln)": 9.45}
{"sequence": "TTTTTTTATTATTATTGTACAAGGCCTTAGGTGATT [XGTACX_site5050]", "gcPBM binding intensity (ln)": 9.54}
{"sequence": "TACTTAATTATAAGGACATGCACAAAAGGAATTATT [TGCATGCA_site468]", "gcPBM binding intensity (ln)": 9.72}
{"sequence": "TTTTTTTTTTTTTTTTTTTTCTTCATTTAATTTATA [GTGCAC_negctrl_site17]", "gcPBM binding intensity (ln)": 8.67}
{"sequence": "ATTATATTTCAATTATGTACATATAAAATGAATAAA [XGTACX_site4204]", "gcPBM binding intensity (ln)": 9.51}
{"sequence": "AATTTTCATTTTAGAAGTACACACAAAAAATAAAAT [XGTACX_site4426]", "gcPBM binding intensity (ln)": 9.64}
{"sequence": "AAATAAAATACAATATGATAAAATGTTATCATATAT [CACACA_negctrl_site538]", "gcPBM binding intensity (ln)": 9.79}
{"sequence": "ATAAATAATATAAATACACACTAAAAAAGATATATA [CACACA_site6397]", "gcPBM binding intensity (ln)": 9.84}
{"sequence": "AATAAAAGGAATAATTGTACATAATGATTATACGTT [XGTACX_site7548]", "gcPBM binding intensity (ln)": 9.8}
{"sequence": "TTTTGTAAAATTAATTTATTATACATATATATTTCT [GTGCAC_negctrl_site728]", "gcPBM binding intensity (ln)": 9.63}
{"sequence": "TAATGTACTTAAACCGCACACATATAAAAAAATAAA [CACACA_site8926]", "gcPBM binding intensity (ln)": 9.8}
{"sequence": "TTATTTTAATTTTTGGTGCATATTCAAGTGTACCTT [GTGCAC_site9791]", "gcPBM binding intensity (ln)": 9.56}
{"sequence": "TATTTACATATTTATATACACACTTTTGCGTGTCTG [CACACA_site1110]", "gcPBM binding intensity (ln)": 10.2}
{"sequence": "AATACTCCATTGTATAGTACATATATTTTTATTTAT [XGTACX_site3641]", "gcPBM binding intensity (ln)": 9.76}
{"sequence": "AATAAAAAAAAAAATAATATATATGTATAAATATAT [CACACA_negctrl_site1561]", "gcPBM binding intensity (ln)": 9.58}
{"sequence": "TATTTTTATTTATATACACACTTACATATTTATATT [CACACA_site7666]", "gcPBM binding intensity (ln)": 10}
{"sequence": "AGAATTTATAAAAACTGTACATATTTTCCAGTTATA [XGTACX_site2848]", "gcPBM binding intensity (ln)": 9.57}
{"sequence": "GTTGTAAAAAGAAAATGTACGTAATAAATATATATA [XGTACX_site3081]", "gcPBM binding intensity (ln)": 9.77}
{"sequence": "TTTATCCTTCTTTTGAGTACTCAAAGAGACCTATAA [XGTACX_site8050]", "gcPBM binding intensity (ln)": 9.48}
{"sequence": "AAAAAAAACAGACACACACACAAATATTTATATATC [CACACA_site6342]", "gcPBM binding intensity (ln)": 10.5}
{"sequence": "ATTATAAATATAAATATAAATATATATTGTTCCGCA [TGCATGCA_negctrl_site470]", "gcPBM binding intensity (ln)": 9.56}
{"sequence": "TATATATATATATATATATATATTTTTATTATATAT [XGTACX_negctrl_site89]", "gcPBM binding intensity (ln)": 9.89}
{"sequence": "TTGCACTCGTAAAAAGCACACATATAAAAACATTTA [CACACA_site7997]", "gcPBM binding intensity (ln)": 9.58}
{"sequence": "TTAAAAATGTTATAATGTACATATAATATTTTATGA [XGTACX_site5954]", "gcPBM binding intensity (ln)": 9.49}
{"sequence": "AAAACACATACTATATGTACATATAATAATTTATAT [XGTACX_site4525]", "gcPBM binding intensity (ln)": 9.79}
{"sequence": "AAGAAAAAAAAAAAAAAAAAAAAAAAAAAAAAAAAA [TGCATGCA_negctrl_site263]", "gcPBM binding intensity (ln)": 9.13}
{"sequence": "TTCTGTATATAGTGTGCACACAATTAAAAAAAAAAA [CACACA_site8400]", "gcPBM binding intensity (ln)": 10}
{"sequence": "ATTATAAATAAAATATGTACATATGTATAAATACAT [XGTACX_site4002]", "gcPBM binding intensity (ln)": 9.76}
{"sequence": "AAATATATTTTTTTTTGTACTCAAAAAGAAAAAAAA [XGTACX_site8540]", "gcPBM binding intensity (ln)": 9.05}
{"sequence": "ATAAAATTATATACTCGTACACAAAAAAAAAAAATA [XGTACX_site6035]", "gcPBM binding intensity (ln)": 9.73}
{"sequence": "AAAAATTGAATGATGTGTACTTAAAAGAATATAGAA [XGTACX_site6588]", "gcPBM binding intensity (ln)": 9.77}
{"sequence": "TTTACACTTTTTTTTGTACACACTAATAAGATTAAC [CACACA_site9304]", "gcPBM binding intensity (ln)": 9.82}
{"sequence": "TTTTAATTAAATACAAAAAAAAAAAAAAAAAAAAAA [CACACA_negctrl_site1631]", "gcPBM binding intensity (ln)": 8.63}
{"sequence": "AAAAAAATTTTTAAAAGTACATTAATATTAATATGT [XGTACX_site5177]", "gcPBM binding intensity (ln)": 9.58}
{"sequence": "ACATTACAATTATTATAATCAATATATAACCTCTAA [TGCATGCA_negctrl_site105]", "gcPBM binding intensity (ln)": 9.49}
{"sequence": "ATATATTATATTTAAGTGCATTAATTAAAATGCTTA [GTGCAC_site9403]", "gcPBM binding intensity (ln)": 9.28}
{"sequence": "AAAAAAAATCAGACAGGTACACATTCCATGTTCAAA [XGTACX_site5380]", "gcPBM binding intensity (ln)": 9.81}
{"sequence": "CATTAATATATATATAGTACATATACACCTTCATTA [XGTACX_site8473]", "gcPBM binding intensity (ln)": 9.75}
{"sequence": "AAAATAAATATAAAATGTACTTATATATATATATAT [XGTACX_site7803]", "gcPBM binding intensity (ln)": 9.52}
